Assay results from the BET-seq Pho4 binding data (Le et al. 2018).
Some of the results follow. These are noisy estimates, calculated here from bound and input reads.

molecular target: T1, Pho4 (S. cerevisiae) (UniProt P07270); assay: relative binding free energy (BET-seq); higher = weaker binding; conditions: reference: library average
T1 sequence: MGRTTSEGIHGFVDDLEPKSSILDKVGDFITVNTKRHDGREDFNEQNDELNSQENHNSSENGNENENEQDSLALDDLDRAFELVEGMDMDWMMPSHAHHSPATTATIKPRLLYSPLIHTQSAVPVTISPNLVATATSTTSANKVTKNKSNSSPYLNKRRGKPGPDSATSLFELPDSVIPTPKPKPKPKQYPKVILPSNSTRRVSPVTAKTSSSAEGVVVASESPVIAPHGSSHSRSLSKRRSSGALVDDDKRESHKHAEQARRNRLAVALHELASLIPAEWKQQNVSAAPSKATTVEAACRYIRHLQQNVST

| Sequence | relative binding free energy |
| --- | --- |
| AAAGTCACGTGAGTAT | 1 kJ/mol |
| CAAGTCACGTGGCGGT | 0.753 kJ/mol |
| TGCGTCACGTGTTATA | 0.251 kJ/mol |
| TTGTGCACGTGGTTTA | -0.209 kJ/mol |
| GGTGGCACGTGGTGAT | -0.209 kJ/mol |
| CGCGTCACGTGGTGAG | -0.251 kJ/mol |
| GCTAACACGTGTGTTG | 0.293 kJ/mol |
| TGTGTCACGTGGCTTT | 0.0418 kJ/mol |
| TTTGACACGTGGTCAG | -0.418 kJ/mol |
| GTCTTCACGTGTAGGT | 0.92 kJ/mol |
| TGAGACACGTGGGCGT | -0.586 kJ/mol |
| TTGCGCACGTGAGATG | 1.17 kJ/mol |
| ATACGCACGTGGAGTT | -0.0837 kJ/mol |
| TATTGCACGTGTGATA | -0.377 kJ/mol |
| GTCTGCACGTGGAGTT | 0 kJ/mol |
| TAGTTCACGTGTCTAG | 1.63 kJ/mol |
| TTATGCACGTGGCGTT | -0.544 kJ/mol |
| AGGGTCACGTGGGTGT | 0.293 kJ/mol |
| GAGCTCACGTGTTGGG | 1.09 kJ/mol |
| ACGGGCACGTGTCGTG | -0.586 kJ/mol |
| GGCGACACGTGGGATG | -0.335 kJ/mol |
| TTGAGCACGTGGGTAT | -0.837 kJ/mol |
| GTGCTCACGTGAGGGC | 1.38 kJ/mol |

| Sequence | relative binding free energy |
| --- | --- |
| GGGGCCACGTGTAGGA | 0.126 kJ/mol |
| ATGAGCACGTGAAAGG | 0.126 kJ/mol |
| GATTGCACGTGCTCGG | 0 kJ/mol |
| AAGGTCACGTGCTGTG | 0.753 kJ/mol |
| GTATGCACGTGGCGCG | -0.837 kJ/mol |
| GCAGGCACGTGGAGGG | -0.293 kJ/mol |
| GATTTCACGTGCGGGG | 1.3 kJ/mol |
| GTACTCACGTGTTGGT | 0.669 kJ/mol |
| AAAGGCACGTGTAAAG | 0.335 kJ/mol |
| CAGTTCACGTGGAGTG | 1.13 kJ/mol |
| GAGGGCACGTGGATGT | -0.251 kJ/mol |
| TTGTTCACGTGGCTAT | 0.879 kJ/mol |
| TCGGTCACGTGGATAT | 0.795 kJ/mol |
| TAGTTCACGTGGTAGC | 1.09 kJ/mol |
| ATGAGCACGTGCATTT | -0.293 kJ/mol |
| TAGTACACGTGGGCTA | -0.544 kJ/mol |
| GCGGTCACGTGATGGT | 0.837 kJ/mol |
| GGGCTCACGTGGGGAG | 0.879 kJ/mol |
| TAAGACACGTGGGGTA | -0.251 kJ/mol |
| TTTAGCACGTGAGGAG | 0.753 kJ/mol |
| ATCGGCACGTGATGTT | 0 kJ/mol |
| CTGAGCACGTGTGGTA | 0 kJ/mol |
| GTAGACACGTGATGGA | 0.669 kJ/mol |

| Sequence | relative binding free energy |
| --- | --- |
| TAGAACACGTGGCGTG | -0.167 kJ/mol |
| GGCTTCACGTGTAGTG | 0.502 kJ/mol |
| TACTTCACGTGATGTT | 1.21 kJ/mol |
| ATATACACGTGATAGT | -0.0418 kJ/mol |
| TACTTCACGTGGGAGG | 0.0837 kJ/mol |
| GTGGGCACGTGGAGCG | -0.418 kJ/mol |
| AAGAGCACGTGTAGGT | -0.586 kJ/mol |
| ATCTTCACGTGGTAAG | 1.3 kJ/mol |
| GTAATCACGTGGCATT | 0.544 kJ/mol |
| CGTGACACGTGTTGGG | 0.0837 kJ/mol |
| TAGTTCACGTGTAGTT | 1.17 kJ/mol |
| GAGGACACGTGATTTG | 0.837 kJ/mol |
| GCATGCACGTGAAGGG | 1.38 kJ/mol |
| AGTCCCACGTGGGTGT | -1 kJ/mol |
| AGTGGCACGTGAAGTT | 0.753 kJ/mol |
| TTTTTCACGTGACATA | 0.962 kJ/mol |
| TCTGTCACGTGGTTAT | -0.209 kJ/mol |
| TGCGTCACGTGAATTT | 1.34 kJ/mol |
| CGATTCACGTGTTGTG | 1.09 kJ/mol |
| CAGTACACGTGAGGTG | 1.26 kJ/mol |
| TGTTCCACGTGAGTGA | 0.502 kJ/mol |
| AATCGCACGTGGGATT | -0.209 kJ/mol |
| GCGCGCACGTGGTGGG | -0.502 kJ/mol |

| Sequence | relative binding free energy |
| --- | --- |
| GCGCGCACGTGTGGTT | 0.0837 kJ/mol |
| GGTTTCACGTGTTCAA | 0.502 kJ/mol |
| AGGCGCACGTGAGGTG | 0.46 kJ/mol |
| TGGGCCACGTGTTATG | -0.544 kJ/mol |
| TGTATCACGTGGCAGT | 0.418 kJ/mol |
| GTTGTCACGTGGCTAG | 0.377 kJ/mol |
| TTGGTCACGTGCCTGT | 0.0418 kJ/mol |
| TGTCCCACGTGGGTGT | -0.753 kJ/mol |
| GAAATCACGTGTTGTG | 0.753 kJ/mol |
| TGGGTCACGTGAAGGA | 1.13 kJ/mol |
| GGCTGCACGTGTCAGT | 0.669 kJ/mol |
| GTGTTCACGTGTGGCC | 1.34 kJ/mol |
| GATATCACGTGGTTGA | 0.795 kJ/mol |
| GGTTTCACGTGAGATG | 1.84 kJ/mol |
| GCTGTCACGTGGGCGT | 0.167 kJ/mol |
| CGTGACACGTGGTTTA | -0.46 kJ/mol |
| AGTTGCACGTGCTGTA | -0.46 kJ/mol |
| GGTTACACGTGTGGCT | 0.795 kJ/mol |
| GGTATCACGTGTGGCC | 0.837 kJ/mol |
| ATTTGCACGTGAGGGG | 0.586 kJ/mol |
| GTGGTCACGTGTGTGC | 0.418 kJ/mol |
| AATGGCACGTGAGTTT | 0.795 kJ/mol |
| GCGTTCACGTGGCGGG | 0.418 kJ/mol |

| Sequence | relative binding free energy |
| --- | --- |
| TCCTTCACGTGGGGTT | 0.167 kJ/mol |
| TAATTCACGTGGCGTA | 0.711 kJ/mol |
| TTGATCACGTGTAATT | 0.962 kJ/mol |
| AGTAGCACGTGAAAGG | 0.753 kJ/mol |
| TGAATCACGTGAGGTA | 1.67 kJ/mol |
| GGGATCACGTGGGTTG | 0.209 kJ/mol |
| TTTGTCACGTGGCGTA | 0.335 kJ/mol |
| GATCGCACGTGAAGGG | 1.17 kJ/mol |
| GTGGGCACGTGACGTC | 0.502 kJ/mol |
| ATAGCCACGTGGTAGT | -0.293 kJ/mol |
| TGCGTCACGTGTATTA | 1 kJ/mol |
| TAAGGCACGTGAAGGA | 0.753 kJ/mol |
| AGGAACACGTGTTAAG | 0.335 kJ/mol |
| ATCTTCACGTGCATGT | 1.34 kJ/mol |
| CTTGGCACGTGTGCGT | -0.92 kJ/mol |
| GGTGGCACGTGAGCAG | -0.0418 kJ/mol |
| GTGGTCACGTGGTGGG | 0.544 kJ/mol |
| AAGGTCACGTGAAGAT | 0.669 kJ/mol |
| AGGGGCACGTGATTTG | -0.335 kJ/mol |
| TAGACCACGTGTTTGT | -0.293 kJ/mol |
| ATGGGCACGTGGGGAC | -0.711 kJ/mol |
| TTAATCACGTGTGTAC | 0.92 kJ/mol |
| AGGTTCACGTGCACGT | 1.09 kJ/mol |
